Results as given in PubChem BioAssay AID1347073 (National Center for Advancing Translational Sciences (NCATS), 2019).
Screen size: about 45,000 compounds; about 200 (0.44%) were called active. Roughly 7% stayed inconclusive and do not appear here. The call rests on the fitted dose curve; in most records, active means well fitted activation curve with a large enough effect; inconclusive means small, poorly fitted or top-dose-only effect; inactive means no such curve, though single readings can be large or run the other way. Some of the results follow.

test: qHTS of TDP-43 Inhibitors: NCGC Sytravon Library Screen; conditions: yeast TDP-43 toxicity rescue, BacTiter-Glo growth, 24 h; series mostly up to 46.1 µM; growth rescue (activation): at the top concentration; further: 0% is about no effect; nearly all actives have a fitted effect of over 55% in size
Summary of the method: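 TDP-43-expressing yeast, pregrown in raffinose, seeded at OD600 0.02 in galactose medium with compound for 24 hr at 30 deg C. Growth read by BacTiter-Glo luminescence, so rescue of toxicity appears as activation.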

SMILES | growth rescue (activation)
Cc1cc(C)cc(OCC(=O)N/N=C/c2ccncc2)c1 | inactive: -13.9%
CCOc1ccccc1-c1nnc(SCC(=O)NC2CC3CCC2C3)n1CC (configuration not stated) | inactive: -10.7%
O=C(O)c1ccc(N2CC3CC(C2)c2cccc(=O)n2C3)c(NS(=O)(=O)c2cccc(C(F)(F)F)c2)c1 (configuration not stated) | inactive: 3.82%
CCN(CC)CCn1c(NCc2ccc(C)o2)nc2ccccc21 | inactive: 8.74%
COCCNC(=O)C(Cc1c[nH]c2ccccc12)NC(=O)OCc1ccccc1 (configuration not stated) | inactive: 2.35%
CNC(=S)N(Cc1cccs1)Cc1cc2ccc(OC)cc2[nH]c1=O | inactive: 2.67%
Cc1csc(CN(C)C(=O)CC2C(=O)NCCN2Cc2ccc(-c3ccccc3)cc2)n1 (configuration not stated) | inactive: 13.3%
CC1CC(C)CN(C(=O)C(C)N2CCN(S(=O)(=O)c3ccccc3F)CC2)C1 (configuration not stated) | inactive: 6.03%
O=C1/C(=C\c2ccco2)NC(=S)N1c1ccccc1 | inactive: -17.5%
O=C(NC1CCCc2ccccc21)c1cn2ccccc2n1 (configuration not stated) | inactive: 13.7%
Cc1cccc(-c2noc(CN(C)C(=O)c3ccco3)n2)c1 | inactive: 10.9%
CN(Cc1cccnc1)C(=O)Cc1ccc(NS(=O)(=O)c2cccc(C(F)(F)F)c2)cc1 | inactive: -0.142%
CC(=O)c1ccc(N2CCN(C(=O)C3CCN(S(=O)(=O)c4cccs4)CC3)CC2)cc1 | inactive: 8.26%
Cc1cccc(NC(=O)CN2C(=O)NC3(CCCCCCC3)C2=O)c1C | inactive: -27.9%
CCOc1ccc(S(=O)(=O)NCc2ccccn2)c(C)c1C | inactive: 3.2%
CCc1nc2ccc(C(=O)NCCOc3ccc(OC)cc3)cn2c1N(CCC(C)C)CCN(C)C | inactive: -19.3%
C=CCC1NCCc2c(Br)cccc21 (configuration not stated) | inactive: 9.15%
CCCn1c(C)nc2c(c1=O)c1nc3ccccc3nc1n2-c1ccccc1 | inactive: -8.06%
CC(=O)OC[C@@H]1CN(Cc2ccccc2)C[C@H](n2cnc3c(NCC(C)C)ncnc32)O1 | inactive: -5.83%
CC1(C(=O)NCc2cccnc2)Cc2c(-c3cccc(C(F)(F)F)c3)ccnc2O1 (configuration not stated) | inactive: 12.9%
CN(C)S(=O)(=O)c1cccc(C(=O)Nc2ccc(N3CCOCC3)cc2)c1 | inactive: -5.53%
COc1cccc(N(C(=O)c2ccco2)C(C(=O)NC2CCCC2)c2ccc(N3CCOCC3)cc2)c1 (configuration not stated) | inactive: -2.53%
CCC(C)(C)NC(=O)C(c1ccccn1)N(C(=O)c1csnn1)c1ccc(C)cc1 (configuration not stated) | inactive: 1.83%
Cc1ccc(C)c(N(CC(=O)NCc2ccco2)C(=O)CNS(=O)(=O)c2ccccc2)c1 | inactive: -3.68%
Cc1ccc(S(=O)(=O)N2CC(=O)Nc3ccccc32)c(C)c1NS(C)(=O)=O | inactive: 3.17%
CCC(=O)Nc1ccc(C(=O)NNC(=O)C(c2ccccc2)c2ccccc2)cc1 | inactive: 3.37%

SMILES | growth rescue (activation)
O=C1C(=O)N(CCN2CCOCC2)C(c2cccnc2)/C1=C(/O)c1ccc(Cl)cc1 (configuration not stated) | inactive: 12.6%
C=C(C)c1cccc(C(C)(C)NC(=O)N2CCN(c3ncccn3)CC2)c1 | inactive: 2.15%
CC(=O)Nc1ccc(NS(=O)(=O)c2ccc(Cl)s2)cc1 | inactive: 13.5%
O=C(COC(=O)/C=C/c1ccco1)NCc1ccco1 | inactive: -9.55%
N#Cc1ccccc1CSc1ncccc1C(=O)O | inactive: -0.0093%
CC1C/C(=C\c2ccccc2[N+](=O)[O-])c2nc3ccccc3c(C(=O)O)c2C1 (configuration not stated) | inactive: -7.75%
CCCC(=O)N1CCN(c2ccc(NC(=O)c3ccc(N4CCCC4)c([N+](=O)[O-])c3)cc2Cl)CC1 | inactive: 26.3%
CC1=C(C(=O)N2CCCC(CCC(=O)NCc3ccccc3F)C2)OCCO1 (configuration not stated) | inactive: 3.72%
COc1ccccc1OCC(=O)Nc1ccc(S(=O)(=O)Nc2onc(C)c2C)cc1 | inactive: 9.55%
CC1CCCCC1NC(=O)CSc1nc2ccccc2[nH]1 (configuration not stated) | inactive: 4.75%
Cc1ccc(N2CC(C(=O)N3CCC(C(=O)Nc4cccc(Br)c4)CC3)CC2=O)cc1 (configuration not stated) | inactive: 3.84%
CCOC(=O)c1nnn(-c2nc(OC)nc(N3CCCC3)n2)c1-c1ccccc1 | inactive: 24.5%
CCSc1ncc(Cl)c(C(=O)N(Cc2ccccc2)Cc2ccco2)n1 | inactive: 15.1%
COc1ccc(CCNC/C=C/c2ccccc2)cc1 | inactive: 4.17%
Cn1c(O)c(C2=c3ccccc3=NC2=O)[nH]c1=S | inactive: -0.429%
O=C(c1ccc2c3c(cccc13)CC2)C1CCCN(Cc2ccccn2)C1 (configuration not stated) | inactive: -7.88%
Cc1ccc(NC(=O)C2C3C=CC4(O3)C2C(=O)N(CCN2CCOCC2)C4C(=O)NC2CCCCC2)cc1C (configuration not stated) | inactive: -1.88%
Cc1cc(NC(=O)COC(=O)c2ccc(C)c(C)c2)no1 | inactive: 14.1%
CC1(C)CC(=O)C2=C(C1)NC1=C(C(=O)c3ccccc31)C2c1ccc(O)cc1 (configuration not stated) | inactive: 18.1%
N#Cc1c(NC(=O)C2CCCO2)sc2c1CCCCC2 (configuration not stated) | inactive: 22.8%
Cc1ccc(/C=C/C(=O)O)cc1S(=O)(=O)NCc1ccco1 | inactive: 3.53%
O=C(COC(=O)c1cccc(Cl)c1)NC(=O)NCc1ccccc1 | inactive: 10.4%
Cc1onc(-c2ccccc2)c1C(=O)NC(=S)Nc1sc2c(c1C#N)CCC(C)C2 (configuration not stated) | inactive: -0.927%
O=C(Nc1cccc(C(=O)N2CCOCC2)c1)c1ccccc1Br | inactive: 10.2%
COc1ccccc1NC(=O)N1CCN(C(=O)c2ccco2)CC1 | inactive: 11%
O=C(Cc1cc(=O)oc2cc(O)ccc12)N[C@@H](Cc1c[nH]c2ccccc12)C(=O)O | inactive: -11.1%
